From article PMC11013433, “New Charged Cholinesterase Inhibitors: Design, Synthesis, and Characterization” (Molecules, 2024)

How the values were obtained:
[1] = molecular target: BChE (butyrylcholinesterase) (Equus caballus, UniProt P81908); assay: biochemical
[2] = molecular target: AChE (acetylcholinesterase) (Electrophorus electricus, UniProt O42275); assay: biochemical

UniProt P81908, sequence (P81908 whole entry): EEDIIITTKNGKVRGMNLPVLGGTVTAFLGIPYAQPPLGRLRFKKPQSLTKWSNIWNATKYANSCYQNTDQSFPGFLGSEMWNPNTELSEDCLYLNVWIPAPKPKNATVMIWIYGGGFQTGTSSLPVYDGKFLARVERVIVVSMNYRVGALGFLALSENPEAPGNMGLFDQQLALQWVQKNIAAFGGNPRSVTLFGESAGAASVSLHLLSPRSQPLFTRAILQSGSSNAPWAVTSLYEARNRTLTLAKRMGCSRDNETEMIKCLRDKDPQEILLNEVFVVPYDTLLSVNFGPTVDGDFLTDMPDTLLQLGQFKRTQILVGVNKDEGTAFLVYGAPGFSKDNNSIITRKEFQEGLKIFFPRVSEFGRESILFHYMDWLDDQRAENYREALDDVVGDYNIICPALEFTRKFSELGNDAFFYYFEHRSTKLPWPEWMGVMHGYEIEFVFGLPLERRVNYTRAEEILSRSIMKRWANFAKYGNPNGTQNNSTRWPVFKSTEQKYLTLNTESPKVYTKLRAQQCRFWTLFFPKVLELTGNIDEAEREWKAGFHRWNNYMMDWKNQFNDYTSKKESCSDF

Row | Compound | IC50 [1] | IC50 [2]
1 | c1coc(Cn2nnc3ccc4ccsc4c32)c1 [compound 23, 1-(furan-2-ylmethyl)-1H-thieno[2′,3′:3,4]benzo[1,2-d][1,2,3]triazole] | 70 µM | 
2 | Fc1cccc(Cn2nnc3ccc4sccc4c32)c1 [compound 24] | 31 µM | 113 µM
3 | COc1cccc(Cn2nnc3ccc4sccc4c32)c1 [compound 25] | 29.3 µM | 
4 | Clc1cccc(Cn2nnc3ccc4sccc4c32)c1 [compound 26] | 20.6 µM | 
5 | CN(C)c1ccc(Cn2nnc3ccc4ccsc4c32)cc1 [compound 27, 4-((1H-thieno[2′,3′:3,4]benzo[1,2-d][1,2,3]triazol-1-yl)methyl)-N,N-dimethylaniline] | 31.1 µM | 
6 | C=CCCn1nnc2ccc3ccsc3c21 [compound 28, 1-(but-3-en-1-yl)-1H-thieno[2′,3′:3,4]benzo[1,2-d][1,2,3]triazole] | 79.4 µM | 
7 | Cc1cc2c(ccc3nnn(Cc4ccc(N(C)C)cc4)c32)s1 [compound 29] | 92.2 µM | 
8 | COc1ccc2ccc3nnn(Cc4ccc(N(C)C)cc4)c3c2c1 [compound 30, 4-((8-methoxy-1H-naphtho[1,2-d][1,2,3]triazol-1-yl)methyl)-N,N-dimethylaniline] |  | 171 µM
9 | C=CCn1nnc2ccc3ccc(Cl)cc3c21 [compound 31, 1-allyl-8-chloro-1H-naphtho[1,2-d][1,2,3]triazole] | 232 µM | 
10 | C=CCCn1nnc2ccc3ccc(Cl)cc3c21 [compound 32, 1-(but-3-en-1-yl)-8-chloro-1H-naphtho[1,2-d][1,2,3]triazole] | 71 µM | 195 µM
11 | COc1ccc(Cn2nnc3ccc4ccc(Cl)cc4c32)cc1 [compound 33, 8-chloro-1-(4-methoxybenzyl)-1H-naphtho[1,2-d][1,2,3]triazole] | 195 µM | 
12 | COc1ccc(CCn2n[n+](C)c3ccc4sccc4c32)cc1 [compound 44, 1-(4-methoxyphenethyl)-3-methyl-1H-thieno[3′,2′:3,4]benzo[1,2-d][1,2,3]triazol-3-ium iodide] | 0.3 µM | 1.8 µM
13 | CCOC(=O)CCn1n[n+](C)c2ccc3sccc3c21 [compound 45, 1-(3-ethoxy-3-oxopropyl)-3-methyl-1H-thieno[3′,2′:3,4]benzo[1,2-d][1,2,3]triazol-3-ium iodide] | 9.2 µM | 4.3 µM
14 | C[n+]1nn(Cc2ccc(C(F)(F)F)cc2)c2c3ccsc3ccc21 [compound 46, 3-methyl-1-(4-(trifluoromethyl)benzyl)-1H-thieno[3′,2′:3,4]benzo[1,2-d][1,2,3]triazol-3-ium iodide] | 1.8 µM | 6.9 µM
15 | C[n+]1nn(CCN2CCOCC2)c2c3ccsc3ccc21 [compound 47, 3-methyl-1-(2-morpholinoethyl)-1H-thieno[3′,2′:3,4]benzo[1,2-d][1,2,3]triazol-3-ium iodide] | 9.8 µM | 15.3 µM
16 | C[n+]1nn(CCCCO)c2c3ccsc3ccc21 [compound 48, 1-(4-hydroxybutyl)-3-methyl-1H-thieno[3′,2′:3,4]benzo[1,2-d][1,2,3]triazol-3-ium iodide] | 37.2 µM | 168 µM
17 | C[n+]1nn(Cc2ccc(F)cc2)c2c3ccsc3ccc21 [compound 49, 1-(4-fluorobenzyl)-3-methyl-1H-thieno[3′,2′:3,4]benzo[1,2-d][1,2,3]triazol-3-ium iodide] | 9.4 µM | 6.7 µM
18 | C[n+]1nn(Cc2ccc(C(F)(F)F)cc2)c2c1CCc1sccc1-2 [compound 50, 3-methyl-1-(4-(trifluoromethyl)benzyl)-4,5-dihydro-1H-thieno[3′,2′:3,4]benzo[1,2-d][1,2,3]triazol-3-ium iodide] | 29.7 µM | 29.3 µM
19 | C[n+]1nn(CCN2CCOCC2)c2c1CCc1sccc1-2 [compound 51, 3-methyl-1-(2-morpholinoethyl)-4,5-dihydro-1H-thieno[3′,2′:3,4]benzo[1,2-d][1,2,3]triazol-3-ium iodide] | 17.5 µM | 20.3 µM
